Laboratory results reported in patent US20240076343A1.

B1: 1H3-hIgG1-L6-hIL-2 (F42R) (protein)
heavy: EVQLVESGGGLVQPGRSLKLSCAVSGFTFSDYAMAWVRQAPKKGLEWVATISYDGSRTYYRDSVKGRFTISRDNAKITLYLQMDSLRSEDTATYYCARHGSGYFDYWGQGVMVTVSS[not shown - about 450 residues with a human IgG1 Fc and changes]
light: DTVLTQSPALAVSPGERVTISCRASESVRTGVHWYQQKPGQQPKLLIYGASNLESGVPARFSGSGSGTDFTLTIDPVEADDTATYFCQQSWNDPFTFGSGTKLEIKRTVAAPSVFIFPPSDEQLKSGTASVVCLLNNFYPREAKVQWKVDNALQSGNSQESVTEQDSKDSTYSLSSTLTLSKADYEKHKVYACEVTHQGLSSPVTKSFNRGEC
B2: 1H3-hIgG1-L6-hIL-2 (F42D) (protein)
heavy: EVQLVESGGGLVQPGRSLKLSCAVSGFTFSDYAMAWVRQAPKKGLEWVATISYDGSRTYYRDSVKGRFTISRDNAKITLYLQMDSLRSEDTATYYCARHGSGYFDYWGQGVMVTVSS[not shown - about 450 residues with a human IgG1 Fc and changes]
light: B1 light
B3: 1H3-hIgG1-L6-hIL-2 (K43A) (protein)
heavy: EVQLVESGGGLVQPGRSLKLSCAVSGFTFSDYAMAWVRQAPKKGLEWVATISYDGSRTYYRDSVKGRFTISRDNAKITLYLQMDSLRSEDTATYYCARHGSGYFDYWGQGVMVTVSS[not shown - about 450 residues with a human IgG1 Fc and changes]
light: B1 light
B4: 1H3-hIgG1-L6-hIL-2 (Y45R) (protein)
heavy: EVQLVESGGGLVQPGRSLKLSCAVSGFTFSDYAMAWVRQAPKKGLEWVATISYDGSRTYYRDSVKGRFTISRDNAKITLYLQMDSLRSEDTATYYCARHGSGYFDYWGQGVMVTVSS[not shown - about 450 residues with a human IgG1 Fc and changes]
light: B1 light
B5: 1H3-hIgG1-L6-hIL-2 (E61A) (protein)
heavy: EVQLVESGGGLVQPGRSLKLSCAVSGFTFSDYAMAWVRQAPKKGLEWVATISYDGSRTYYRDSVKGRFTISRDNAKITLYLQMDSLRSEDTATYYCARHGSGYFDYWGQGVMVTVSS[not shown - about 450 residues with a human IgG1 Fc and changes]
light: B1 light
B6: 1H3-hIgG1-L6-hIL-2 (E61R) (protein)
heavy: EVQLVESGGGLVQPGRSLKLSCAVSGFTFSDYAMAWVRQAPKKGLEWVATISYDGSRTYYRDSVKGRFTISRDNAKITLYLQMDSLRSEDTATYYCARHGSGYFDYWGQGVMVTVSS[not shown - about 450 residues with a human IgG1 Fc and changes]
light: B1 light
B7: 1H3-hIgG1-L6-hIL-2 (E61K) (protein)
heavy: EVQLVESGGGLVQPGRSLKLSCAVSGFTFSDYAMAWVRQAPKKGLEWVATISYDGSRTYYRDSVKGRFTISRDNAKITLYLQMDSLRSEDTATYYCARHGSGYFDYWGQGVMVTVSS[not shown - about 450 residues with a human IgG1 Fc and changes]
light: B1 light
B8: 1H3-hIgG1-L6-hIL-2 (E62A) (protein)
heavy: EVQLVESGGGLVQPGRSLKLSCAVSGFTFSDYAMAWVRQAPKKGLEWVATISYDGSRTYYRDSVKGRFTISRDNAKITLYLQMDSLRSEDTATYYCARHGSGYFDYWGQGVMVTVSS[not shown - about 450 residues with a human IgG1 Fc and changes]
light: B1 light
B9: 1H3-hIgG1-L6-hIL-2 (E62R) (protein)
heavy: EVQLVESGGGLVQPGRSLKLSCAVSGFTFSDYAMAWVRQAPKKGLEWVATISYDGSRTYYRDSVKGRFTISRDNAKITLYLQMDSLRSEDTATYYCARHGSGYFDYWGQGVMVTVSS[not shown - about 450 residues with a human IgG1 Fc and changes]
light: B1 light
B10: 1H3-hIgG1-L6-hIL-2 (E62K) (protein)
heavy: EVQLVESGGGLVQPGRSLKLSCAVSGFTFSDYAMAWVRQAPKKGLEWVATISYDGSRTYYRDSVKGRFTISRDNAKITLYLQMDSLRSEDTATYYCARHGSGYFDYWGQGVMVTVSS[not shown - about 450 residues with a human IgG1 Fc and changes]
light: B1 light
B11: 1H3-hIgG1-L6-hIL-2 (E62Y) (protein)
heavy: EVQLVESGGGLVQPGRSLKLSCAVSGFTFSDYAMAWVRQAPKKGLEWVATISYDGSRTYYRDSVKGRFTISRDNAKITLYLQMDSLRSEDTATYYCARHGSGYFDYWGQGVMVTVSS[not shown - about 450 residues with a human IgG1 Fc and changes]
light: B1 light
B12: 1H3-hIgG1-L6-hIL-2 (E68K) (protein)
heavy: EVQLVESGGGLVQPGRSLKLSCAVSGFTFSDYAMAWVRQAPKKGLEWVATISYDGSRTYYRDSVKGRFTISRDNAKITLYLQMDSLRSEDTATYYCARHGSGYFDYWGQGVMVTVSS[not shown - about 450 residues with a human IgG1 Fc and changes]
light: B1 light
B13: 1H3-hIgG1-L6-hIL-2 (E68R) (protein)
heavy: EVQLVESGGGLVQPGRSLKLSCAVSGFTFSDYAMAWVRQAPKKGLEWVATISYDGSRTYYRDSVKGRFTISRDNAKITLYLQMDSLRSEDTATYYCARHGSGYFDYWGQGVMVTVSS[not shown - about 450 residues with a human IgG1 Fc and changes]
light: B1 light
B14: 1H3-hIgG1-L6-hIL-2 (L72R) (protein)
heavy: EVQLVESGGGLVQPGRSLKLSCAVSGFTFSDYAMAWVRQAPKKGLEWVATISYDGSRTYYRDSVKGRFTISRDNAKITLYLQMDSLRSEDTATYYCARHGSGYFDYWGQGVMVTVSS[not shown - about 450 residues with a human IgG1 Fc and changes]
light: B1 light
B15: 1H3-hIgG1-L6-hIL-2 (L72D) (protein)
heavy: EVQLVESGGGLVQPGRSLKLSCAVSGFTFSDYAMAWVRQAPKKGLEWVATISYDGSRTYYRDSVKGRFTISRDNAKITLYLQMDSLRSEDTATYYCARHGSGYFDYWGQGVMVTVSS[not shown - about 450 residues with a human IgG1 Fc and changes]
light: B1 light
B16: 1H3-hIgG1-L6-hIL-2 (L72H) (protein)
heavy: EVQLVESGGGLVQPGRSLKLSCAVSGFTFSDYAMAWVRQAPKKGLEWVATISYDGSRTYYRDSVKGRFTISRDNAKITLYLQMDSLRSEDTATYYCARHGSGYFDYWGQGVMVTVSS[not shown - about 450 residues with a human IgG1 Fc and changes]
light: B1 light
B17: 1H3-hIgG1-L6-hIL-2 (H16E) (protein)
heavy: EVQLVESGGGLVQPGRSLKLSCAVSGFTFSDYAMAWVRQAPKKGLEWVATISYDGSRTYYRDSVKGRFTISRDNAKITLYLQMDSLRSEDTATYYCARHGSGYFDYWGQGVMVTVSS[not shown - about 450 residues with a human IgG1 Fc and changes]
light: B1 light
B18: 1H3-hIgG1-L6-hIL-2 (L19A) (protein)
heavy: EVQLVESGGGLVQPGRSLKLSCAVSGFTFSDYAMAWVRQAPKKGLEWVATISYDGSRTYYRDSVKGRFTISRDNAKITLYLQMDSLRSEDTATYYCARHGSGYFDYWGQGVMVTVSS[not shown - about 450 residues with a human IgG1 Fc and changes]
light: B1 light
B19: 1H3-hIgG1-L6-hIL-2 (D20H) (protein)
heavy: EVQLVESGGGLVQPGRSLKLSCAVSGFTFSDYAMAWVRQAPKKGLEWVATISYDGSRTYYRDSVKGRFTISRDNAKITLYLQMDSLRSEDTATYYCARHGSGYFDYWGQGVMVTVSS[not shown - about 450 residues with a human IgG1 Fc and changes]
light: B1 light

Biological target: high-affinity hIL-2 receptor (IL-2Rαβγ) (human) (UniProt P01589)
Assay: cell-based or functional assay

Going from B1 to B2, the Fold change from rhIL-2 (NK-92), pSTAT5 titration rises from 65 fold to 193 fold.

Going from B3 to B4, the Fold change from rhIL-2 (NK-92), pSTAT5 titration rises from 3 fold to 81 fold.

First: B5
Second: B6
The Fold change from rhIL-2 (NK-92), pSTAT5 titration of the first is lower: 3 fold for the first, 22 fold for the second.

Going from B7 to B8, the Fold change from rhIL-2 (NK-92), pSTAT5 titration falls from 14 fold to 6 fold.

Compared with B9, B10 is lower in Fold change from rhIL-2 (NK-92), pSTAT5 titration: greater than 10000 fold for the first, 2048 fold for the second.

First: B11
Second: B12
The Fold change from rhIL-2 (NK-92), pSTAT5 titration of the first is higher: 18 fold for the first, 2 fold for the second.

Compared with B13, B14 is lower in Fold change from rhIL-2 (NK-92), pSTAT5 titration: 3 fold for the first, 2 fold for the second.

First: B15
Second: B16
The Fold change from rhIL-2 (NK-92), pSTAT5 titration of the first is higher: 4 fold for the first, 1 fold for the second.

First: B17
Second: B18
The Fold change from rhIL-2 (NK-92), pSTAT5 titration of the first is higher: 63 fold for the first, 0 fold for the second.

For B19, the Fold change from rhIL-2 (NK-92), pSTAT5 titration was greater than 10000 fold.

B9 and B16 are the same in Agonistic Activity (NK-92), pSTAT5 titration: 80% for the first, 80% for the second.

Biological target: intermediate affinity hIL-2 receptor complex (IL-2Rβγ) (human) (UniProt P14784)
Assay: cell-based or functional assay

B1 and B2 are the same in Fold change from rhIL-2 (TF1 + IL-2Rβ), pSTAT5 titration: 0 fold for the first, 0 fold for the second.

B3 and B4 are the same in Fold change from rhIL-2 (TF1 + IL-2Rβ), pSTAT5 titration: 0 fold for the first, 0 fold for the second.

B5 and B6 are the same in Fold change from rhIL-2 (TF1 + IL-2Rβ), pSTAT5 titration: 0 fold for the first, 0 fold for the second.

B7 and B8 are the same in Fold change from rhIL-2 (TF1 + IL-2Rβ), pSTAT5 titration: 0 fold for the first, 0 fold for the second.

Compared with B9, B10 is lower in Fold change from rhIL-2 (TF1 + IL-2Rβ), pSTAT5 titration: 38 fold for the first, 10 fold for the second.

B11 and B12 are the same in Fold change from rhIL-2 (TF1 + IL-2Rβ), pSTAT5 titration: 0 fold for the first, 0 fold for the second.

Going from B13 to B14, the Fold change from rhIL-2 (TF1 + IL-2Rβ), pSTAT5 titration rises from 0 fold to 1 fold.

B15 and B16 are the same in Fold change from rhIL-2 (TF1 + IL-2Rβ), pSTAT5 titration: 0 fold for the first, 0 fold for the second.

Going from B17 to B18, the Fold change from rhIL-2 (TF1 + IL-2Rβ), pSTAT5 titration falls from 63 fold to 0 fold.

Work on B19 yielded a Fold change from rhIL-2 (TF1 + IL-2Rβ), pSTAT5 titration of 2770 fold.

Biological target: high-affinity hIL-2 receptor (IL-2Rαβγ) on NK-92 cells (human) (UniProt P01589)
Assay: cell-based or functional assay

Going from B1 to B2, the Fold change from rhIL-2 (NK-92) rises from 6 fold to 10 fold.

Compared with B3, B4 is higher in Fold change from rhIL-2 (NK-92): 1 fold for the first, 4 fold for the second.

Compared with B5, B6 is higher in Fold change from rhIL-2 (NK-92): 0 fold for the first, 1 fold for the second.

B7 and B8 are the same in Fold change from rhIL-2 (NK-92): 1 fold for the first, 1 fold for the second.

B9 and B10 cannot be ordered by Fold change from rhIL-2 (NK-92): greater than 10000 fold for the first, greater than 10000 fold for the second.

First: B11
Second: B12
The Fold change from rhIL-2 (NK-92) of the first is higher: 1 fold for the first, 0 fold for the second.

Going from B13 to B14, the Fold change from rhIL-2 (NK-92) rises from 1 fold to 3 fold.

First: B15
Second: B16
The Fold change from rhIL-2 (NK-92) of the first is higher: 2 fold for the first, 1 fold for the second.

Compared with B17, B19 is higher in Fold change from rhIL-2 (NK-92): 0 fold for the first, 239 fold for the second.

Work on B10 yielded an Agonistic Activity (NK-92) of 40 to 70%.

B17 and B18 are the same in Fold change from hIL-2 (NK-92): 1 fold for the first, 1 fold for the second.

In the case of B19, the Fold change from hIL-2 (NK-92) is reported as 10 fold.

Biological target: intermediate affinity hIL-2 receptor (hIL-2Rβγ) on TF1+IL-2Rβ cells (human) (UniProt P14784)
Assay: cell-based or functional assay

First: B1
Second: B2
The Fold change from rhIL-2 (TF1 + IL-2Rβ) of the first is lower: 0 fold for the first, 2 fold for the second.

Going from B3 to B4, the Fold change from rhIL-2 (TF1 + IL-2Rβ) falls from 2 fold to 0 fold.

B5 and B6 are the same in Fold change from rhIL-2 (TF1 + IL-2Rβ): 1 fold for the first, 1 fold for the second.

B7 and B8 are the same in Fold change from rhIL-2 (TF1 + IL-2Rβ): 1 fold for the first, 1 fold for the second.

First: B9
Second: B11
The Fold change from rhIL-2 (TF1 + IL-2Rβ) of the first is higher: 209 fold for the first, 1 fold for the second.

B12 and B13 are the same in Fold change from rhIL-2 (TF1 + IL-2Rβ): 1 fold for the first, 1 fold for the second.

Going from B14 to B15, the Fold change from rhIL-2 (TF1 + IL-2Rβ) falls from 3 fold to 0 fold.

Compared with B16, B17 is higher in Fold change from rhIL-2 (TF1 + IL-2Rβ): 1 fold for the first, 34 fold for the second.

B18 gave a Fold change from rhIL-2 (TF1 + IL-2Rβ) of 1 fold.

B9 and B10 are the same in Agonistic Activity (TF1 + IL-2Rβ): 60% for the first, 60% for the second.

In the case of B19, the Agonistic Activity (TF1 + IL-2Rβ) is reported as 50 to 70%.
